ChEMBL document CHEMBL1201862, “PubChem BioAssay data set” (2004)
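Cultured in 96-well plates, cells were exposed to test compound for 48 hours across five concentrations. GI50 marks 50% less growth.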 Calls of active or inactive are those of the source. Rule as the data show it: active = GI50 up to about 1.1 µM and inactive = higher.

The compounds below were run on NCI-H322M (assay: NCI tumour cell line growth inhibition, 48 h).
`COc1cc2c(cc1OC)C(=O)N1CCCC1C(=O)S2` (stereo not given) was tested, and the GI50 was inactive: > 100 µM.
In the case of `NNC(=O)CNc1cccc(Br)c1`, the GI50 is reported as inactive: > 100 µM.
With `COc1cccc([C@H]2CC(=O)c3cc4c(cc3N2)OCO4)c1` the GI50 was active: 0.537 µM.
In the case of `CC1(C)C/C(=N/O)c2c(nc3ccc4ccccc4c3c2-c2ccc(Cl)cc2)C1`, the GI50 is reported as inactive: 66.8 µM.
With `N#CC(c1ccccc1)N(CCOCCOCCN(C(=O)c1cccc2ccccc12)C(C#N)c1ccccc1)C(=O)c1cccc2ccccc12` (stereo not given) the GI50 was inactive: > 100 µM.
For `COc1cc([C@@H]2c3cc4c(cc3[C@H](OC3OC5COC(C(C)C)OC5C(O)C3O)C3COC(=O)[C@@H]32)OCO4)cc(OC)c1O` (stereo not given in full), the GI50 was inactive: 14.1 µM.
In the case of `CN(C)C(=O)CC(C(=O)O)c1c[nH]c2ccccc12` (stereo not given), the GI50 is reported as inactive: > 100 µM.
In the case of `CN(C)CCNC(=O)c1cccc2c1Oc1cccc([N+](=O)[O-])c1O2`, the GI50 is reported as inactive: 14.4 µM.
In the case of `CC(C)N/C(=N\C#N)NS(=O)(=O)c1cnccc1Nc1ccc(Cl)cc1`, the GI50 is reported as inactive: > 100 µM.
For `Cc1cc2c(c(C(=O)NCCC(=O)O)c1)Oc1c(cc(C)cc1C(=O)NCCC(=O)O)S2`, the GI50 was inactive: > 100 µM.
`CC(O)C1(CNc2cc(Cl)nc(N)n2)CCCC1` (stereo not given) was tested, and the GI50 was inactive: > 100 µM.
With `O=c1c2c(oc3ccccc13)-c1ccccc1OC2` the GI50 was inactive: 31.5 µM.
For `CC1(CCC2C=CCC2)CCCNC1=S` (stereo not given), the GI50 was inactive: > 10 µM.
For `Cc1cc2nc3c(C#N)c4c(c(-c5ccc(Cl)cc5)n3c2cc1C)CCC4`, the GI50 was inactive: 16.3 µM.
`O=C1c2ccccc2C(=O)[C@@]23O[C@@]12C1(Oc2cccc4cccc(c24)O1)[C@@H]1O[C@@H]1[C@@H]3O` was tested, and the GI50 was inactive: 16.5 µM.
For `Cc1ccc(-n2cc([Si](C)(C)C)nn2)s1`, the GI50 was inactive: 89.7 µM.
With `CCOP(=O)(OCC)C(=C1C=C(C(C)(C)C)C(=O)C(C(C)(C)C)=C1)P(=O)(OCC)OCC` the GI50 was inactive: > 10 µM.
For `O=C1c2ccccc2C(=O)c2sc(Nc3cc(Cl)ccc3Cl)nc21`, the GI50 was inactive: 14.8 µM.
`CO/N=C(/C(=O)OC)c1ccccc1COc1ccccc1C(F)(F)F` was tested, and the GI50 was inactive: 57.1 µM.
In the case of `CCSc1nc(C)nc2c1sc1nc3ccccc3n12`, the GI50 is reported as inactive: > 100 µM.
For `CC(=O)/N=C1/N(/C=C2\C(=O)Oc3ccccc3C2=O)C(=O)/C(=C/c2cccc(Cl)c2Cl)N1C`, the GI50 was inactive: 35.2 µM.
With `CC(=O)N1C/C(=C\c2ccccc2)C(=O)/C(=C/c2ccccc2)C1` the GI50 was inactive: 17.7 µM.
For `Cc1[nH]c(=O)[nH]c(=O)c1/C=C/C(=O)NC(CO)C[S+]([O-])C[S+](C)[O-]` (stereo not given), the GI50 was inactive: 11.4 µM.
For `CC1OC(=O)C2CC3CCCCC3C(/C=C/C3CCCC(C)N3C)C12` (stereo not given), the GI50 was inactive: > 100 µM.
In the case of `CCOC(=O)c1[nH]cc(C)c1-c1cccn1-c1ccc(Cl)cc1[N+](=O)[O-]`, the GI50 is reported as inactive: 37.3 µM.
For `COc1ccc(/C=C(\Cl)c2ccc(OC)c(OC)c2)cc1OC`, the GI50 was inactive: > 100 µM.
For `COC(=O)CCc1ccc2c(c1)C(=O)CC2`, the GI50 was inactive: > 100 µM.
`CC1(C)N=C(/C(Cl)=[N+](/[O-])C(=O)c2ccc(F)cc2)C(C)(C)N1O` was tested, and the GI50 was inactive: 25.8 µM.
`CC(=O)NNc1nc(C)c(C(=O)/C=C/c2ccc(/C=C/C(=O)c3sc(NNC(C)=O)nc3C)cc2)s1` was tested, and the GI50 was inactive: > 100 µM.
In the case of `CC1=C[C@@H](C)C[C@]2(C)CC[C@H](O2)[C@]23CC[C@](C(=O)O)(C[C@H](O2)[C@@H]2O[C@@](C)(CC2=O)[C@@H](O)[C@H]2CC[C@@]4(CCC[C@@H](O4)[C@H](C)C(=O)O[C@H]4C[C@H]([C@]5(O)OCC[C@H](C)[C@@H]5O)O[C@H]4C=C1)O2)O3`, the GI50 is reported as inactive: > 10 µM.
`CC(OP(=O)(O)O)C(N)C(=O)O` (stereo not given) was tested, and the GI50 was inactive: > 100 µM.
For `CCCCCCCCC/C=C1\CC(CO)(COC(=O)C2CCCCC2)OC1=O` (stereo not given), the GI50 was active: 0.236 µM.
With `Cc1c2cc[n+](C)cc2c(C)c2c1[nH]c1ccccc12` the GI50 was active: 1.06 µM.
In the case of `O=[N+]([O-])c1nccn1CC(O)CN1CC1` (stereo not given), the GI50 is reported as inactive: > 100 µM.
In the case of `COc1ccc(C2CC(=O)c3c(O)cc(O)cc3O2)cc1O` (stereo not given), the GI50 is reported as inactive: > 100 µM.
